According to PubChem BioAssay AID651820 (National Center for Advancing Translational Sciences (NCATS), 2012):
Hit rate of the full screen: of about 340,000 compounds, about 12,000 (3.5%) were called active. Inconclusive means that the source gave no clear call. Such entries were picked first, then a sample of the others. The call rests on the fitted dose curve; in most records, active means well fitted inhibition curve with a large enough effect; inconclusive means small, poorly fitted or top-dose-only effect, or another doubt; inactive means no such curve, though single readings can be large or run the other way. Potencies of inconclusive entries are left out as doubtful fits.
Potency means the concentration at half of the fitted maximal effect; tags describe the fitted curve by direction and shape.

Test: qHTS Assay for Inhibitors of Hepatitis C Virus (HCV)
Conditions: Huh7.5.1 HCVcc-Cre (HCVcc is cell-culture hepatitis C virus) infection, luciferase reporter, 44 h; series mostly up to 41.8 µM
Summary of the method: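 Seed cells (1,000/well) for 4 h; treat with compound and infect with HCVcc-Cre, moi about 0.5. Incubate 44 h, then detect luciferase activity.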
In the case of Cc1ccc(S(=O)(=O)c2ccc(Cl)cc2)cc1S(=O)(=O)N1CCN(C)CC1, the Potency is reported as inconclusive [inhibitor, single point]. With C=CCNC(=O)c1cc2sccc2n1C the Potency was inconclusive [inhibitor, single point]. For O=C(c1cccc(C(F)(F)F)c1)C1CCCN(C(=O)CCn2cnnn2)C1 (stereo not drawn), the Potency was “inactive”. For COc1ccc(NC(=O)COC(=O)c2cc(OC)c(OC)cc2NC(=O)c2ccco2)cc1OC, the Potency was “inactive”. With COc1cccc(/C=C2/CCC(CN(C)C)C2=O)c1 (stereo not drawn) the Potency was inconclusive [inhibitor, full curve]. In the case of O=C1CCCC2=C1C(c1ccncc1)c1c(nc(SCc3ccccc3)[nH]c1=O)N2 (stereo not drawn), the Potency is reported as inconclusive [inhibitor, single point]. For CC(C(=O)NCC1CCCO1)n1cc([N+](=O)[O-])cn1 (stereo not drawn), the Potency was “inactive”. In the case of Cc1cccc(C)c1NC(=O)/C(C#N)=C/c1cccs1, the Potency is reported as “inactive”. In the case of Cc1nn(Cc2ccc(Cl)c(Cl)c2)c(C)c1NC(=O)c1sc2ccccc2c1Cl, the Potency is reported as active: 22.4 µM. In the case of COC(=O)c1c(N2C(=O)[C@H]3[C@@H](C2=O)[C@]2(C(=O)Nc4c2ccc(C)c4C)N2CCC[C@@H]32)sc(C)c1C, the Potency is reported as inconclusive [inhibitor, single point]. For Cc1nc2ccc(NC(=O)c3ccc(S(=O)(=O)N(C)c4ccccc4)cc3)cc2s1, the Potency was inconclusive [inhibitor, partial curve]. For Cc1cc(C)c(NC(=O)CSc2nc3ccc(NC(=O)CSc4nnnn4Cc4ccccc4)cc3s2)c(C)c1, the Potency was inconclusive [inhibitor, partial curve, poor fit]. In the case of CC1(c2ccccc2)NC(=O)N(CC(=O)Nc2ccc3c(c2)CCC3)C1=O (stereo not drawn), the Potency is reported as “inactive”. In the case of COc1cccc(NC(=O)c2ccnc(N3CCC(C(=O)NCc4ccccc4OC)CC3)c2)c1, the Potency is reported as inconclusive [inhibitor, partial curve]. With CCc1noc(C)c1C(=O)N(Cc1ccccc1)c1c(N)n(CCOC)c(=O)[nH]c1=O the Potency was inconclusive [inhibitor, partial curve]. With CCn1nc(C(=O)NNC(=O)CCOc2cc(C)ccc2C)c2ccccc2c1=O the Potency was “inactive”. With CC(C(=O)N1CCN(c2ccc(Cl)cc2)CC1)c1ncc(C(F)(F)F)cc1Cl (stereo not drawn) the Potency was inconclusive [inhibitor, single point]. For Cc1ccc(/C=C/c2nnc(-c3cccs3)o2)cc1, the Potency was “inactive”. For O=C(CN1CCN(S(=O)(=O)c2ccccc2)CC1)N1CCc2ccccc21, the Potency was “inactive”. For Cc1cc(NCc2ccccn2)n2ncc(-c3ccc(Cl)cc3)c2n1, the Potency was inconclusive [inhibitor, full curve]. With Cc1cc(C)c(C#N)c(N2CCN(C(=O)C3COc4ccccc4O3)CC2)n1 (stereo not drawn) the Potency was inconclusive [inhibitor, single point]. In the case of CCCCN(C(=O)CSc1nnc(-c2ccc(OC)cc2)n1C(C)C)c1c(N)n(Cc2ccccc2)c(=O)[nH]c1=O, the Potency is reported as inconclusive [inhibitor, single point]. For N#Cc1c(-c2ccco2)cc(-c2ccccn2)nc1N, the Potency was inconclusive [inhibitor, single point]. In the case of O=C(NCc1nc(-c2ccccc2)no1)c1ccc2c(c1)OCO2, the Potency is reported as inconclusive [inhibitor, single point]. For CCN(CC)C(=O)c1ccc(S(=O)(=O)N2CCC(c3nc4ccccc4s3)CC2)cc1, the Potency was active: 2.51 µM. For COc1cc(C)c(C(=O)CSc2nnc(CNC(=O)c3ccco3)n2C)cc1C, the Potency was “inactive”. With Cc1ccc(OCCn2cc(/C(N)=N/O)c3ccccc32)cc1C the Potency was inconclusive [inhibitor, single point]. With O=C(COc1ccc2ccccc2c1)Nc1ccc(Cc2ccncc2)cc1 the Potency was inconclusive [inhibitor, partial curve]. In the case of C=CCNC(=S)Nc1ccc(N2CCOCC2)c(S(=O)(=O)Nc2ccccc2Cl)c1, the Potency is reported as inconclusive [inhibitor, single point]. With COc1ccc(-c2cc(C(=O)N3CCN(c4ccccc4)CC3)no2)cc1 the Potency was inconclusive [inhibitor, single point]. With Cc1cc2c(ccc3c2no[n+]3[O-])nn1 the Potency was inconclusive [inhibitor, full curve, poor fit]. With CCOC(=O)C1=C(C2=CCCCC2)c2ccc(OC)cc2N(S(=O)(=O)C(F)(F)F)C1C(=O)OCC (stereo not drawn) the Potency was inconclusive [inhibitor, partial curve]. In the case of COCCN(C(=O)COC(=O)CCC1CCCC1)c1c(N)n(Cc2ccccc2)c(=O)[nH]c1=O, the Potency is reported as “inactive”. For CCc1cc2c(CN(C)Cc3ccccc3F)cc(=O)oc2cc1O, the Potency was inconclusive [inhibitor, single point]. For CCCc1cc(-c2nc(N)ncc2-c2ccc3c(c2)OCCCO3)c(O)cc1OC, the Potency was inconclusive [inhibitor, single point]. For Cc1cc(/C=C2/SC(=S)N(c3ccc([N+](=O)[O-])cc3)C2=O)c(C)n1-c1cccnc1, the Potency was active: 2.51 µM. For COc1ccc(S(=O)(=O)N2CCCN(S(=O)(=O)c3ccc(OC)c(C)c3)CC2)cc1C, the Potency was inconclusive [inhibitor, single point]. In the case of CC(C)C(NS(=O)(=O)c1cccc(C(F)(F)F)c1)C(=O)N1CCc2ccccc2C1 (stereo not drawn), the Potency is reported as “inactive”. For COc1ccc(C(=O)N/C(=C/c2cccs2)C(=O)NCCCn2ccnc2)cc1OC, the Potency was “inactive”. With COC(=O)c1ccsc1NC(=O)CN1CCN(c2ccc(F)cc2)CC1 the Potency was inconclusive [inhibitor, single point]. With CC(OC(=O)C1=COCCO1)C(=O)Nc1cc(S(=O)(=O)N2CCCCC2)ccc1Cl (stereo not drawn) the Potency was “inactive”. With O=c1cc(NCCc2ccccc2)c2ccccc2o1 the Potency was inconclusive [inhibitor, single point]. With Cc1ccc(NC(=O)CSc2ccc(-c3cccnc3)nn2)cc1Cl the Potency was inconclusive [inhibitor, single point].
